Among the data in PubChem BioAssay AID360 (National Center for Advancing Translational Sciences (NCATS), 2006) are Potency values, retold here.

Out of some 48,000 compounds screened, about 550 (1.1%) were called active. Not shown: some 4% with an inconclusive outcome. Cut-off read from the data, not from the text of the source: active = potency below about 15 µM; inconclusive = mostly about 16 µM to 33 µM; inactive = weaker than that. The list shows a part of the results.
Potency is the fitted concentration of half-maximal effect.

Sequence of UniProt P04062 (P04062 whole entry, looked up): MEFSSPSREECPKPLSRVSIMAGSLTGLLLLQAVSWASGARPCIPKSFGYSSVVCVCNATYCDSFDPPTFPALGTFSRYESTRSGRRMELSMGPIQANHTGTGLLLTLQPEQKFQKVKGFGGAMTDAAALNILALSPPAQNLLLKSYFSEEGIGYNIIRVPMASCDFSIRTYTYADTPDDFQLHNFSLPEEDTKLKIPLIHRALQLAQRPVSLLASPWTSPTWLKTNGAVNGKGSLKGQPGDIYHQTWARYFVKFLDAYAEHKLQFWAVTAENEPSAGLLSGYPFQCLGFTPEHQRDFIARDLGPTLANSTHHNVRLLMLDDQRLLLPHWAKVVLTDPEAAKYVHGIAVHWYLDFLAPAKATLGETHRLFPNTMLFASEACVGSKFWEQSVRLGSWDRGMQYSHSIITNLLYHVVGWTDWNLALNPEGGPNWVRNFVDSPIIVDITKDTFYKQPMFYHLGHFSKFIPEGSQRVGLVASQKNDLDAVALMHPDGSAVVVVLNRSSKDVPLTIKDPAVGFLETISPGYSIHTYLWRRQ

This assay addresses Lysosomal acid glucosylceramidase (Homo sapiens) (UniProt P04062). Nature of the assay: Glucocerebrosidase.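 Note: the screen sought inhibitors.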 As to conditions: purified enzyme, resorufin glucoside fluorescence (screen aimed at inhibitors), 20 min. In outline:
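Normal human glucocerebrosidase (0.2 nM final) was assayed with resorufin β-D-glucopyranoside (30 uM final) in 50mM citric acid/KH2PO4, 10mM sodium taurocholate, 0.01% tween-20, pH 5.9. Compounds were titrated; fluorescence (Ex 548, Em 600) read after 20 min at RT.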
With `N#Cc1c(NC(=O)CSc2nc3ccccc3c(=O)n2Cc2ccco2)sc2c1CCCC2`, the Potency is inactive: > 76.9 µM. As for `CC(C(=O)O)c1cccc(C(=O)c2ccccc2)c1` (centres undefined), the figure is inactive: > 76.9 µM. As for `O=C(C1CCCN(Cc2cccs2)C1)N1CCCCCC1` (centres undefined), the figure is inactive: > 76.9 µM; as for `O=C(COC(=O)C1CC1)Nc1ccc(Oc2ccccc2)cc1`, inactive: > 76.9 µM.

Regarding `Cc1oc2cc(O)cc(O)c2c(=O)c1-c1ccc2c(c1)OCCCO2`, the Potency is inactive: > 76.9 µM.

As for `CCOc1ccc(N(CC(=O)NCc2ccc(OC)cc2)S(=O)(=O)c2c(C)noc2C)cc1`, the Potency is inactive: > 76.9 µM. As for `COC(=O)c1c(N)n(-c2ccc(N3CCOCC3)cc2)c2nc3ccccc3nc12`, the figure is inactive: > 76.9 µM. As for `CCCCN(c1ccccc1)S(=O)(=O)c1ccc2c(c1)CCN2C(=O)CCC(=O)O`, the figure is inactive: > 76.9 µM. As for `Cc1cc2oc(=O)cc(C)c2c(=O)o1`, the figure is inactive: > 76.9 µM; as for `CCOc1ccccc1C(=O)NCCCn1ccnc1`, inactive: > 76.9 µM. Take `COc1cccc(C(=O)NC2CC3CCCC(C2)N3CC(=O)Nc2ccccc2)c1` (centres undefined): the Potency was inactive: > 76.9 µM.

In the case of `CN(C)c1oc(-c2ccccc2Cl)nc1C#N`, the Potency was inactive: > 76.9 µM.

`COc1ccc(NC(=O)c2cc3n(n2)C(C(F)(F)F)CC(c2ccco2)N3)cc1` (centres undefined): the Potency was inactive: > 76.9 µM. Turning to `COc1ccc(OC)c(CNC(=O)CCNC(=O)Cn2ccc3ccccc3c2=O)c1`, the Potency was inactive: > 76.9 µM. Regarding `CC(=O)Oc1ccc(NC(=O)CSc2ccccc2)cc1`, the Potency was inactive: > 76.9 µM. As for `CC1CCCC(NC(=O)COC(=O)c2ccc(S(=O)(=O)N3CCOCC3)cc2)C1C` (centres undefined), the figure is inactive: > 76.9 µM; as for `CCOc1ccccc1NS(=O)(=O)c1cccs1`, inactive: > 76.9 µM. As for `COc1ccc(CN(C(=O)CNC(=O)c2ccco2)C(C(=O)NC2CCCC2)c2ccco2)cc1` (centres undefined), the figure is inactive: > 76.9 µM. As for `O=C(CCC1CCCCC1)Nc1c2c(nn1-c1ccc(F)cc1)CS(=O)(=O)C2`, the figure is inactive: > 76.9 µM. On to `O=C(COC(=O)c1cccs1)NCc1ccco1`, for which the Potency was inactive: > 76.9 µM. As for `O=C(c1ccccc1)N1CCN(C2CCCCCC2)CC1`, the figure is inactive: > 76.9 µM; as for `Cc1n[nH]c(C)c1S(=O)(=O)N1CCCCCC1`, inactive: > 76.9 µM; as for `COc1cccc(C(=O)Nc2ccc(NC(=O)C(C)C)nc2)c1`, inactive: > 76.9 µM. For the compound `Cc1nc2ncnn2c(N2CCC(C(=O)NCC3CCCO3)CC2)c1Cc1ccccc1` (centres undefined), the Potency is inactive: > 76.9 µM. As for `Cn1nnnc1SCC(=O)c1cccs1`, the figure is inactive: > 76.9 µM. As for `CCN(CC)CCOC(=O)c1cccc(Cl)c1`, the figure is inactive: > 76.9 µM; as for `O=C(Nc1nc2ccccc2s1)C1CCCO1` (centres undefined), inactive: > 76.9 µM; as for `O=C(NCCCNCc1ccccc1)c1ccncc1`, inactive: > 76.9 µM.

For the compound `CCN1CCN(C(=O)c2ccccc2N(Cc2ccccc2)S(C)(=O)=O)CC1`, the Potency was inactive: > 76.9 µM. As for `COc1cc(OC)nc(NC(=O)CS(=O)(=O)c2ccccc2)n1`, the figure is inactive: > 76.9 µM. As for `CC(CN1CCOCC1)OC(=O)c1ccccc1Br` (centres undefined), the figure is inactive: > 76.9 µM; as for `Cc1cc(OCC(=O)Nc2ccc(S(=O)(=O)N3CCN(C)CC3)cc2)cc(C)c1Cl`, “inactive”; as for `c1cc2c(cc1Oc1nc(N3CCOCC3)nc(N3CCOCC3)n1)OCO2`, inactive: > 76.9 µM.

For the compound `COc1ccccc1NC(=O)CSCC(N)=O`, the Potency is inactive: > 76.9 µM.

`O=C(CCC(=O)c1ccc(F)cc1)OC1CCOC1=O` (centres undefined): the Potency is inactive: > 76.9 µM.

For the compound `COCc1cc(C)nc(N2CCc3ccccc32)c1C#N`, the Potency is inactive: > 76.9 µM. With `CCOC(=O)CC1=CSC2=NS(=O)(=O)CCN12`, the Potency was inactive: > 76.9 µM. As for `CCOc1ccc(OCc2ccc(C(=O)NCC3CCCO3)o2)cc1` (centres undefined), the figure is inactive: > 76.9 µM. Turning to `COCCn1nnnc1C(C(C)C)N1CCOCC1` (centres undefined), the Potency is inactive: > 76.9 µM.

For `NC(=O)CC(O)c1cccc(Cl)c1` (centres undefined), the Potency is inactive: > 76.9 µM. As for `COc1ccc(-c2noc(C3CCCN(C(=O)c4cccs4)C3)n2)cc1` (centres undefined), the Potency was inactive: > 76.9 µM. As for `CCn1c(=N)n(CCO)c2ccccc21`, the figure is inactive: > 76.9 µM. As for `CCN(CC(=O)Nc1ccc2c(c1)OCCO2)Cc1cc(=O)oc2cc(C)c(C)cc12`, the figure is inactive: > 76.9 µM; as for `COc1cccc(CC(NC(C)=O)C(=O)NC2CCN(c3c4c(nc5ncnn35)CCC4)CC2)c1` (centres undefined), inactive: > 76.9 µM. As for `CCCn1c(=O)c(C(=O)Nc2c(C)n(C)n(-c3ccccc3)c2=O)c(O)c2ccccc21`, the figure is inactive: > 76.9 µM. In the case of `CC1CCC2C(C1)c1sc(=O)[nH]c1SC2(C)C` (centres undefined), the Potency is inactive: > 76.9 µM. As for `Cc1ccc2cccc(Oc3nnnn3-c3ccccc3)c2n1`, the figure is inactive: > 76.9 µM. As for `CCn1c(=O)cc(OCC(=O)O)c2ccccc21`, the figure is inactive: > 76.9 µM; as for `COc1ccc(CCNC(=O)c2cnn3cccnc23)cc1OC`, inactive: > 76.9 µM. As for `O=C(NCc1ccco1)c1cc2n(n1)C(C(F)(F)F)CC(c1ccc(Cl)c(Cl)c1)N2` (centres undefined), the figure is inactive: > 76.9 µM; as for `O=C(NCCCn1ccnc1)c1ccncc1`, inactive: > 76.9 µM. As for `Cc1cccc2c(=O)oc(-c3ccc4c(c3)C(=O)N(CC3CCCO3)C4=O)nc12` (centres undefined), the Potency is inactive: > 76.9 µM. As for `CCOc1ccccc1Oc1cn[nH]c1-c1ccc(OC)cc1O`, the Potency is inactive: > 76.9 µM. As for `CCCC(=O)c1ccc(N2CCN(S(=O)(=O)c3ccc(C)cc3)CC2)c(F)c1`, the figure is inactive: > 76.9 µM. As for `Cc1cnn(-c2cc(Oc3ccccc3)ncn2)c1`, the figure is inactive: > 76.9 µM. As for `Cc1cc2n(n1)C(c1sccc1C)Nc1ccccc1-2` (centres undefined), the figure is inactive: > 76.9 µM; as for `O=C(O)CCC1=C2c3ccccc3CCN2C(=O)CC1`, inactive: > 76.9 µM. With `CSc1ccccc1NC(=O)Nc1ccccc1`, the Potency is inactive: > 76.9 µM. `COCc1nnc(N)s1`: the Potency was inactive: > 76.9 µM. As for `CCOC(=O)N1CCC(N2Cc3cccc(C(=O)N4CC(C)CC(C)C4)c3C2=O)CC1` (centres undefined), the figure is inactive: > 76.9 µM; as for `COc1ccc(N(CC(=O)Nc2ccc(C)c(C)c2)S(=O)(=O)c2c(C)n[nH]c2C)cc1`, active: 15.2 µM. As for `CCOC(=O)Cc1csc(SCn2nnc3ccccc3c2=O)n1`, the figure is inactive: > 76.9 µM; as for `C(/CCc1ccccc1)=N\n1cnnc1`, inactive: > 76.9 µM.

Take `CCOC(=O)c1cnc(SCC(=O)Nc2ccc(NC(C)=O)c(OC)c2)nc1N`: the Potency is inactive: > 76.9 µM. As for `CC(=O)c1cccc(NC(=O)C2CCN(S(=O)(=O)c3ccc(C)cc3)CC2)c1`, the figure is inactive: > 76.9 µM; as for `CC1(C)Cc2nc3oc4c(NCc5ccccc5)ncnc4c3cc2CO1`, inactive: > 15.4 µM; as for `CC(=O)c1cccc(NC(=O)CN2C(=O)NC3(CCCCCCC3)C2=O)c1`, inactive: > 76.9 µM. As for `COc1ccc(NC(=O)NCc2ccccn2)cc1OC`, the figure is inactive: > 76.9 µM; as for `CCCN(CCC)CCNC(=O)c1cc2c(C)nc3ccccc3c2o1`, inactive: > 76.9 µM. `Cc1ccccc1Cn1nnc(-c2cccc(C(=O)O)c2)n1`: the Potency is inactive: > 76.9 µM. As for `CCN1CCN(C(c2cc3cc4c(cc3[nH]c2=O)OCO4)c2nnnn2C(C)(C)CC)CC1` (centres undefined), the figure is inactive: > 76.9 µM; as for `CCCCOc1ccc(-c2nnn(CC(=O)Nc3ncc(CC(=O)OCC)s3)n2)cc1`, inactive: > 76.9 µM; as for `CCOC(=O)C1=C(N)Oc2cc(C)[nH]c(=O)c2C1c1ccncc1` (centres undefined), inactive: > 76.9 µM. As for `O=S(=O)(O)CCN1CCOCC1`, the figure is inactive: > 76.9 µM.

Take `Cc1nc(=O)c(-c2ccccc2)c(C)n1Cc1ccccc1`: the Potency is inactive: > 76.9 µM.

Consider `CCOc1ccc(Oc2nc(Nc3ccc(C)cc3)nc(N(C)C)n2)nn1`, for which the Potency is inactive: > 76.9 µM. As for `O=C(c1c[nH]c(=O)n(-c2ccccc2)c1=O)N1CCc2ccccc21`, the Potency was inactive: > 76.9 µM.

Take `Clc1ccc(Cc2noc(CN3CCN(c4ccccc4)CC3)n2)c(Cl)c1`: the Potency was inactive: > 76.9 µM. As for `COC(=O)Cn1ccc(N(C)C)c(C#N)c1=O`, the figure is inactive: > 76.9 µM; as for `COC(=O)CSc1nc(C2CC2)nc2ccccc12`, inactive: > 76.9 µM; as for `COc1cc(NS(=O)(=O)c2ccc(C)cc2C)cc(OC)c1OC`, inactive: > 76.9 µM.

Take `COc1ccc2cc(C(c3nnnn3Cc3ccc(F)cc3)N3CCCCCC3)c(=O)[nH]c2c1` (centres undefined): the Potency entry was “inactive”. As for `CCOC(=O)CSc1nc2cccnc2n1-c1ccc(F)cc1`, the figure is inactive: > 76.9 µM; as for `COc1ccccc1CN(Cc1cc2cc(C)cc(C)c2[nH]c1=O)Cc1nnnn1CC1CCCO1` (centres undefined), inactive: > 76.9 µM. As for `COc1ccc2nc(NC(=O)CN3CCN(C)CC3)sc2c1`, the figure is inactive: > 76.9 µM; as for `Cc1cc(C)c(C)c(OCC(=O)NCc2nc(-c3ccccc3)no2)c1`, inactive: > 76.9 µM; as for `O=C(Nc1ccc(N2CCOCC2)cc1)c1ccc2nc(-c3ccco3)c(-c3ccco3)nc2c1`, inactive: > 76.9 µM. As for `COc1ccccc1-n1cnc(N)c1C(C)=O`, the figure is inactive: > 76.9 µM; as for `CC(=O)c1cnc(Nc2nc(C)c3cccc(C)c3n2)nc1C`, inactive: > 76.9 µM. As to `CCCc1[nH]nc2c1C(CCC)C(C#N)=C(N)O2` (centres undefined), the Potency was inactive: > 76.9 µM. As for `Cc1ccc2c(c1)N(CCCC(=O)NCC1COc3ccccc3O1)C(=O)CO2` (centres undefined), the figure is inactive: > 76.9 µM; as for `COc1cc(C(=O)N(C)c2nnc(-c3cccnc3)s2)cc(OC)c1OC`, inactive: > 76.9 µM; as for `O=C(c1ccncc1)N1CCN(C(=O)c2cccs2)CC1`, inactive: > 76.9 µM.

As to `O=C(CN(C(=O)CCC(=O)Nc1nccs1)c1ccc(F)cc1)NCC1CCCO1` (centres undefined), the Potency is inactive: > 76.9 µM.
